Measurements: PubChem BioAssay AID662 (National Center for Advancing Translational Sciences (NCATS), 2007)
About 1,800 (2.5%) of roughly 71,000 compounds were called active. This list was built around the results that the source calls inconclusive (neither active nor inactive); the mix of calls is not that of the screen. Calls come from the whole dose curve; as a rule, active = well fitted activation curve with a large enough effect in the signal ratio, with a control signal flat (not every such curve was filed as active); inconclusive = small, poorly fitted or top-dose-only effect, or effect the other way, or a change in a side signal; inactive = flat fitted curve, though single readings scatter; the % refers to the signal ratio. Where the call is inconclusive, the potency comes from a doubtful curve fit.

Experiment: Cell signaling CRE-BLA (Fsk stim); for activity change, negative = inhibition: % of control where 0% means no effect
Settings: CHO CRE-bla reporter (cAMP response element driving beta-lactamase), forskolin EC10, beta-lactamase ratio; activity change, negative = inhibition: at 38.2 µM (top of the series) unless noted
How it was run: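 qHTS titration format; CRE-bla CHO reporter; stimulus EC10 NKH 477, a water-soluble forskolin. Read: CCF4 460/530 nm ratio. Potency expressed as AC50 for activators or inhibitors.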
Potency is the fitted concentration of half-maximal effect; tags give direction and shape of the fitted curve.

Structure (SMILES) | activity change, negative = inhibition | Potency
COc1ccccc1NC(=O)CN1C(=O)C2(OCCCO2)c2ccccc21 | inconclusive: -2.88% | –
COc1ccc(N(C)S(=O)(=O)c2cccc3cccnc23)c(OC)c1 | – | inconclusive: 7.94 µM [falling, partial curve, poor fit]
CCn1c(=O)n(CC)c2cc(S(=O)(=O)N3CCc4ccccc43)ccc21 | inactive: 20% | –
CC1(C)Cc2cccc(OCC(=O)N3CCN(S(=O)(=O)c4ccccc4)CC3)c2O1 | inactive: -1.64% | –
COc1cccc(NC(=O)CN2C(=O)C3(OCCCO3)c3ccccc32)c1 | inconclusive: -4.43% | –
CCOC(=O)C1=C(C)NC2=C(C(=O)CC(C)(C)C2)C1c1cccc(C)n1 (centres undefined) | inconclusive: 18.7% | –
COc1cccc(OC)c1C(=O)N1CCN(Cc2ccccc2C)CC1 | inconclusive: -23.9% [at 7.6 µM] | –
Cc1nc2ccc(F)cc2cc1C(=O)NCC1CCCO1 (centres undefined) | inactive: 3.8% | –
NCc1ccc(C(=O)O)cc1 | inactive: -1.12% [at 7.6 µM] | –
CCCCCN=c1ccn(Cc2ccccc2)c2ccccc12 | inactive: -8.83% | –
CCOC(=O)c1[nH]c(C)c(C(=O)NCCC2=CCCCC2)c1C | – | inconclusive: 3.16 µM [rising, single point]
COc1cc2c(cc1OC)[C@@H]1C(=O)c3ccc4c(c3O[C@@H]1CO2)C=CC(C)(C)O4 | inconclusive: -19.1% | –
CCOC(=O)C1(C)NC(c2ccc(OC)c(OC)c2)C2C(=O)N(CC)C(=O)C21 (centres undefined) | inactive: 2.88% | –
Cn1c(C(=O)NCCCN2CCCCCC2)cc2c(=O)n(C)c3ccccc3c21 | – | inconclusive: 12.6 µM [rising, single point]
COC(=O)c1cc(=O)n(Cc2cccs2)c(=NCc2cccs2)s1 | inconclusive: 5.42% | –
CSc1nsc(SCC(=O)N2CCCc3ccccc32)n1 | inconclusive: -10.8% | –
O=c1c(CCc2ccccc2)nc2cncnc2n1C1CC1 | inconclusive: 4.02% | –
CCOc1ccc(-c2nc(CSc3nncs3)cs2)cc1OC | – | active: 5.01 µM
CCCn1c(=O)c2[nH]c(-c3ccc(OCC(=O)Nc4ccc(C(C)=O)cc4)cc3)nc2n(CCC)c1=O | inconclusive: -14.1% | –
CN=C1c2ccccc2CN1c1cccc(C(=O)OC)c1 | – | inconclusive: 12.6 µM [rising, partial curve]
CCc1c(C)nc2ncnn2c1N1CCC(C(=O)Nc2ccc(C)cc2)CC1 | inactive: 2.55% | –
CC(Oc1ccccc1)C(=O)N1CCCc2ccccc21 (centres undefined) | inconclusive: 17.2% [at 7.6 µM] | –
O=C1CC(c2ccc(F)cc2)Cc2nc(N3CCN(c4ccccc4)CC3)ncc21 (centres undefined) | inconclusive: 17.4% | –
COc1cc(OC)cc(C(C(=O)NCc2ccccc2)N(Cc2ccco2)C(=O)c2ccno2)c1 (centres undefined) | inconclusive: -14% | –
O=C(Cn1cnc2c(nnn2Cc2ccc(Cl)cc2)c1=O)N1CCCc2ccccc21 | inconclusive: -19% | –
CCOc1ccc2nc(C)cc(C(=O)O)c2c1 | inconclusive: 2.4% | –
COc1ccc(OC)c(C2C(C(=O)c3cccs3)=C(O)C(=O)N2CCN(C)C)c1 (centres undefined) | inconclusive: 14.8% | –

Structure (SMILES) | activity change, negative = inhibition | Potency
COc1ccc2[nH]c(C)c(CN3CCC(C)CC3)c(=O)c2c1 | – | inconclusive: 0.0251 µM [rising, single point]
Cc1ccc(-c2nnn(CC(=O)N(Cc3ccccc3)C(C(=O)NC3CCCC3)c3ccncc3)n2)o1 (centres undefined) | inactive: -0.938% | –
CC1(C)S[C@@H]2[C@H](NC(=O)COc3ccccc3)C(=O)N2[C@H]1C(=O)O (tested in a mixture with another compound) | inactive: -1.33% [at 17.1 µM] | –
CCn1cc(C(=O)NCCCOC(C)C)c2cc(OC)c(OC)cc2c1=O | – | inconclusive: 5.01 µM [rising, partial curve]
CNC(=O)c1[nH]cnc1C(=O)Nc1cccc(OC)c1 | – | inconclusive: 12.6 µM [rising, partial curve]
c1ccc(-c2ccc(-c3nc(-c4ccccn4)no3)cc2)cc1 | inconclusive: -22.3% | –
CN(C)c1ncc2nc(-c3cccs3)c(=O)n(Cc3cccs3)c2n1 | – | inconclusive: 1 µM [rising, full curve]
CCOC(=O)N1CCN(C(=O)C(C)(C)Oc2ccc(Cl)cc2)CC1 | inactive: 0.944% | –
Cc1ccc(C)n1-n1c(C)nc2scc(-c3cccs3)c2c1=O | – | inconclusive: 10 µM [rising, partial curve]
CCS(=O)(=O)NCCc1cc2cc(C)c(C)cc2[nH]c1=O | inactive: -10.5% | –
Cc1csc(NC(=O)C2CCCN(S(=O)(=O)c3ccc(Br)s3)C2)n1 (centres undefined) | inconclusive: -19.7% | –
CCC(=O)Nc1ccc(NC(=O)c2ccccn2)cn1 | inconclusive: -0.995% | –
CCOC(=O)N1CCN(C(=O)c2ccc3c(=O)n(CCc4ccccc4)c(=O)[nH]c3c2)CC1 | inactive: -3.7% | –
CCCCS/C(=C(/C#N)C(N)=O)c1cc2c([nH]1)CCCC2 | inactive: -14.5% | –
CCCCN(C)C(=O)c1ccc2c(c1)N(CC)C(=O)c1ccccc1S2(=O)=O | inactive: 1.07% | –
COc1ccc(-c2cc(C(=O)Nc3c(C)nn(Cc4ccccc4)c3C)no2)cc1 | inconclusive: -13.5% | –
CCOc1c(N2CCCCC2)c(=O)c1=O | inconclusive: -7.19% | –
CN(C)S(=O)(=O)c1cccc(C(=O)OCC(=O)Nc2sccc2C(N)=O)c1 | inconclusive: 0.297% | –
N=C(N)SCC(=O)O | inconclusive: 6.89% [at 7.6 µM] | –
CN1CCN(C(=O)c2ccc(S(=O)(=O)c3ccc(Br)cc3)cc2)CC1 | inactive: -4.39% | –
C=CCOc1c(CNc2nccs2)cccc1OCC | inconclusive: 14.3% | –
Clc1cc(Cl)c(Cl)c(Cl)c1Cl | inactive: -6.13% | –
COc1cccc(C2=NO[C@@H]3C(=O)N(Cc4ccccc4)C(=O)[C@H]23)c1OC | inconclusive: -9.9% | –
Cc1cc(-n2c(C)cc(C(=O)CSc3nnnn3-c3ccc(Cl)cc3)c2C)no1 | inactive: -17.8% | –
COc1ccc(S(=O)(=O)N2CCN(S(=O)(=O)c3ccc4c(c3)OCCO4)CC2)cc1C | inactive: -7.28% | –
O=C1C2C3CCCC3=C3CCCC3C2C(=O)N1c1cccc(Cl)c1 (centres undefined) | inactive: -4.26% | –
COc1ccc2[nH]cc(CCNc3nc(-c4ccccc4OC)nc4ccccc34)c2c1 | – | inconclusive: 10 µM [rising, single point]
